Measured values: the supplement of paper PMC4604168 (melanoma cell lines)
This is one part of the list. Many values rest on one well or one pass, so single values are uncertain.
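Further: cells treated in 1,536-well plates, then fixed and DAPI-stained, with nuclei counted from automated high-throughput microscope images.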

These compounds were tested on SkMel28 (assay: cell count relative to DMSO control; melanoma cells; higher = more viable cells). Conditions: library dose: standard library concentration; 72 h.
In the case of Cn1nnc2c(C(N)=O)ncn2c1=O [temozolomide] + Oc1nc(-c2ccc(C(F)(F)F)cc2)nc2c1CSCC2 [XAV939] (first compound 10 µM, partner dose 10 µM), the cell count is reported as 38.7%. In the case of O=C(Nc1cc(C(F)(F)F)cc(C(F)(F)F)c1)c1cc(Cl)ccc1O + C[C@]1(c2nc3c(C(N)=O)cccc3[nH]2)CCCN1 [Veliparib] (first compound 0.08 µM, partner dose 7 µM), the cell count is reported as 78.8%. In the case of O=C(O)c1ccc2c(c1)nc(Nc1cccc(Cl)c1)c1ccncc12 + O=C(Nc1ccccc1)c1cc([N+](=O)[O-])ccc1Cl [GW9662] (first compound 2 µM, partner dose 10 µM), the cell count is reported as 43.9%. O=C(O)c1ccc2c(c1)nc(Nc1cccc(Cl)c1)c1ccncc12 + Cn1cc(/C=C2\C(=O)Nc3cccnc32)c2ccccc21 [GW441756] (first compound 2 µM, partner dose 2 µM) gave a cell count of 69.3%. Work on O=C(O)[C@@H]1[O][Sb](=[O])([O][Sb]2(=[O])[O][C@H]([C@H](O)CO)[C@H](O)[C@H](C(=O)O)[O]2)[O][C@H]([C@H](O)CO)[C@@H]1O (stereo not given in full) [stibogluconate] + COc1ccc2c(c1)CCC1C2CCC2(C)C(NCCCCCCN3C(=O)C=CC3=O)CCC12 [U73122] (first compound 10 µM, partner dose 2 µM) yielded a cell count of 113%.
